{
  "source": "the supplement of paper PMC9446081",
  "note": "The whole screen tested about 39,000 compounds, of which about 220 (0.56%) showed activity. The list shows a part of the results.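 Note: static incubation at 37 °C against the wild-type strain, values averaged over two biological replicates.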",
  "data": [
    {"system": "Escherichia coli K-12 BW25113", "experiment": "relative growth (OD600 normalised to plate interquartile mean) (fraction); higher = less growth inhibition, active = 0.2 or less", "details": "50 µM; LB; incubation time: overnight (16-24 h)", "values": [
      {"compound": "CN1C[C@@H]2c3nc(N(C)C)ncc3CS(=O)(=O)[C@H]2C1", "relative growth": "inactive: 0.979"},
      {"compound": "CC[n+]1c(-c2ccccc2)c2cc(N)ccc2c2ccc(N)cc21.[Br-]", "relative growth": "inactive: 0.915"},
      {"compound": "N#Cc1cccnc1N1CCNCC1", "relative growth": "inactive: 1.01"},
      {"compound": "O=[N+]([O-])O[C@@H]1CO[C@H]2[C@@H]1OC[C@@H]2O", "relative growth": "inactive: 0.992"},
      {"compound": "CC(C)=CCCC1(C)C=Cc2c(O)c3c(c(CC=C(C)C)c2O1)OC12C(=CC4CC1C(C)(C)OC2(CC=C(C)C(=O)O)C4O)C3=O", "note": "(stereo unspecified)", "relative growth": "inactive: 1.07"},
      {"compound": "CCCCCCCCCC(=O)O[C@@H]1[C@@H](C)[C@]2(O)[C@@H](C=C(CO)C[C@]3(O)C(=O)C(C)=C[C@@H]23)[C@@H]2C(C)(C)[C@@]12OC(=O)CCCCCCCCC", "relative growth": "inactive: 1.03"},
      {"compound": "NCCc1cccc(O)c1", "relative growth": "inactive: 0.993"},
      {"compound": "C[C@H]1CN([C@@H](C)CO)C(=O)c2c(c3ccccc3n2C)-c2ccccc2CO[C@@H]1CN(C)C(=O)Oc1ccccc1", "relative growth": "inactive: 0.96"},
      {"compound": "COP(=O)(OC)OC(Br)C(Cl)(Cl)Br", "note": "(stereo unspecified)", "relative growth": "inactive: 0.945"},
      {"compound": "COC(=O)C1=CCCN(C)C1", "relative growth": "inactive: 1.02"},
      {"compound": "O=S(=O)(O)O.Oc1cccc2cccnc12", "relative growth": "active: 0.0986"},
      {"compound": "CC1(C)C(=O)C=CC2(C)C1=C(O)C(=O)C1(C)C2CCC2(C)C(c3ccoc3)CC3OC321", "note": "(stereo unspecified)", "relative growth": "inactive: 1.07"},
      {"compound": "O=C(NC(=O)c1c(F)cccc1F)Nc1cc(Cl)c(OC(F)(F)C(F)C(F)(F)F)cc1Cl", "note": "(stereo unspecified)", "relative growth": "inactive: 1.18"},
      {"compound": "Cl.Oc1noc2c1CCNC2", "relative growth": "inactive: 1.07"},
      {"compound": "Cc1scc(CCN)c1C", "relative growth": "inactive: 1.01"},
      {"compound": "CN1CCN([C@@H](CN)c2ccc3c(c2)OCO3)CC1", "relative growth": "inactive: 0.977"},
      {"compound": "C[C@@H]1CN([C@@H](C)CO)C(=O)CCCn2cc(nn2)CO[C@@H]1CN(C)C(=O)Oc1ccc2ccccc2c1", "relative growth": "inactive: 0.955"},
      {"compound": "C=CC=CCC1=C(C)C(OC(=O)C2C(C=C(C)C)C2(C)C)CC1=O", "note": "(stereo unspecified)", "relative growth": "inactive: 1.02"},
      {"compound": "CCN1C[C@]2(COC)CC[C@H](O)[C@@]34[C@@H]2[C@@H](OC)[C@@H]([C@@H]13)[C@@]1(OC(C)=O)C[C@H](OC)[C@H]2C[C@H]4[C@@H]1[C@@H]2OC(C)=O", "relative growth": "inactive: 1"},
      {"compound": "CSC1=NN1c1cc(C)nc(N)n1", "relative growth": "inactive: 1.03"},
      {"compound": "[N-]=[N+]=NCC(=O)N1CCOCC1", "relative growth": "inactive: 0.981"},
      {"compound": "CC(C)[C@@]1(NC(=O)[C@@H]2C[C@@H]3c4cccc5[nH]cc(c45)C[C@H]3N(C)C2)O[C@@]2(O)[C@@H]3CCCN3C(=O)[C@H](Cc3ccccc3)N2C1=O", "relative growth": "inactive: 1"},
      {"compound": "NC1=NC(=O)C2(CCNCC2)N1", "relative growth": "inactive: 1.02"},
      {"compound": "O=C1C[C@@H](CO)CN1", "relative growth": "inactive: 0.993"},
      {"compound": "O=C1C=C2C(=CCOC2O)O1", "note": "(stereo unspecified)", "relative growth": "active: 0.0434"},
      {"compound": "Cl.NCC(O)c1ccc(O)cc1", "note": "(stereo unspecified)", "relative growth": "inactive: 1.08"},
      {"compound": "O=[N+]([O-])OC1COC2C(O)COC12", "note": "(stereo unspecified)", "relative growth": "inactive: 1.2"},
      {"compound": "N#CN1CCCC1", "relative growth": "inactive: 1"},
      {"compound": "c1csc(N2CCNCC2)n1", "relative growth": "inactive: 1"},
      {"compound": "CCC1(O)C(=O)OCc2c1cc1n(c2=O)Cc2cc3ccccc3nc2-1", "note": "(stereo unspecified)", "relative growth": "inactive: 0.976"},
      {"compound": "O=C1CCCN1CC#CCN1CCCC1", "relative growth": "inactive: 1.04"},
      {"compound": "C[N+]1(C)C2CCC1CC(OC(=O)C(CO)c1ccccc1)C2.O=[N+]([O-])[O-]", "note": "(stereo unspecified)", "relative growth": "inactive: 1.03"},
      {"compound": "COCCCNC(=O)C1[C@@H]2CC[C@H]1CNC2", "note": "(stereo partly specified)", "relative growth": "inactive: 0.963"},
      {"compound": "C1CCC(NC2CCCC2)CC1", "relative growth": "inactive: 0.983"},
      {"compound": "NCCc1ccccn1", "relative growth": "inactive: 1.01"},
      {"compound": "C=CCOC(=O)[C@@H]1[C@@H](C(=O)OC)N(C)[C@@H](c2ccccc2)[C@]12C(=O)Nc1ccc(I)cc12", "relative growth": "inactive: 0.998"},
      {"compound": "NC1Cc2ccccc2C1", "relative growth": "inactive: 0.985"},
      {"compound": "CC(C)Oc1ccccc1CCN", "relative growth": "inactive: 1"},
      {"compound": "CC(C)=CCCC1(C)C=Cc2c(O)c3c(c(CC=C(C)C)c2O1)OC12C(=CC4CC1C(C)(C)OC2(CC=C(C)C(=O)O)C4=O)C3=O", "note": "(stereo unspecified)", "relative growth": "inactive: 1.01"},
      {"compound": "Oc1cc(Cl)ccc1Oc1ccc(Cl)cc1Cl", "relative growth": "active: 0.0446"},
      {"compound": "CCOC(=O)c1c(CN2CCN(Cc3ccccc3)CC2)n(Cc2ccccc2)c2cc(Br)c(O)cc12", "relative growth": "inactive: 1.04"},
      {"compound": "CC1(C)C(C=C(Cl)Cl)C1C(=O)OC(C#N)c1cccc(Oc2ccccc2)c1", "note": "(stereo unspecified)", "relative growth": "inactive: 0.883"},
      {"compound": "C=C1[C@@H](C)[C@H]2[C@H](Cc3ccccc3)NC(=O)[C@]23[C@H](OC(C)=O)/C=C/[C@](C)(O)C(=O)[C@@H](C)C/C=C/[C@H]3[C@@H]1O", "relative growth": "inactive: 0.976"},
      {"compound": "CC(C)(C#N)O[C@@H]1O[C@H](CO)[C@@H](O)[C@H](O)[C@H]1O", "relative growth": "inactive: 1.03"},
      {"compound": "COc1cccc(-c2ccc3c(CCN)c[nH]c3c2)c1", "relative growth": "inactive: 0.996"},
      {"compound": "CO/C1=C\\C(C)=C\\[C@@H](C)[C@@H](O)[C@@H](C)C/C(C)=C/C=C/[C@H](OC)[C@@H]([C@@H](C)[C@@H](O)[C@H](C)C(=O)/C=C/[C@H](C)[C@H](O)C(C)C)OC1=O", "relative growth": "inactive: 0.965"}
    ]}
  ]
}
